# According to the supplement of paper PMC4604168 (melanoma cell lines):
# The list shows a part of the results. Most values come without repeats; read them as rough.
# System: WM1745
# Assay: cell count relative to DMSO control; melanoma cells; higher = more viable cells
# Settings: library dose: low library concentration; 72 h
# 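Note: cell number obtained by counting DAPI-stained nuclei in high-throughput microscope images with image analysis software, screen run in 1,536-well plates.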
row,SMILES,cell count
1,"O=C(O)c1ccc2c(c1)nc(Nc1cccc(Cl)c1)c1ccncc12 + CC(C)CCN1c2nc(Nc3cc(F)c(O)c(F)c3)ncc2N(C)C(=O)C1C [BID1870] (first compound 0.4 µM, partner dose 0.2 µM)",99%
2,"O=C(Nc1cc(C(F)(F)F)cc(C(F)(F)F)c1)c1cc(Cl)ccc1O + CCCCCCCCCCCCCCCCCCOP(=O)([O-])OC1CC[N+](C)(C)CC1 [Perifosine] (first compound 0.016 µM, partner dose 0.4 µM)",100%
3,"O=C(O)c1ccc2c(c1)nc(Nc1cccc(Cl)c1)c1ccncc12 + C=C(c1ccc(C(=O)O)cc1)c1cc2c(cc1C)C(C)(C)CCC2(C)C [Bexarotene] (first compound 0.4 µM, partner dose 2 µM)",93.5%
4,"O=C(O)c1ccc2c(c1)nc(Nc1cccc(Cl)c1)c1ccncc12 + N#Cc1c(O)c2c(-c3ccc(-c4ccccc4O)cc3)csc2[nH]c1=O [A769662] (first compound 0.4 µM, partner dose 2 µM)",89.6%
5,"O=C(Nc1cc(C(F)(F)F)cc(C(F)(F)F)c1)c1cc(Cl)ccc1O + O=c1[nH]nc(Sc2ncc([N+](=O)[O-])s2)n1-c1ccc2c(c1)OCCO2 [BI78D3] (first compound 0.016 µM, partner dose 0.2 µM)",97.3%
6,"O=C(O)[C@@H]1[O][Sb](=[O])([O][Sb]2(=[O])[O][C@H]([C@H](O)CO)[C@H](O)[C@H](C(=O)O)[O]2)[O][C@H]([C@H](O)CO)[C@@H]1O (stereo partly drawn) [stibogluconate] + COc1cc2ncnc(Nc3ccc(Oc4ccccc4)cc3)c2cc1OC [SrcI1] (first compound 2 µM, partner dose 2 µM)",86%
7,"O=C(O)[C@@H]1[O][Sb](=[O])([O][Sb]2(=[O])[O][C@H]([C@H](O)CO)[C@H](O)[C@H](C(=O)O)[O]2)[O][C@H]([C@H](O)CO)[C@@H]1O (stereo partly drawn) [stibogluconate] + CCCS(=O)(=O)Nc1ccc(F)c(C(=O)c2c[nH]c3ncc(Cl)cc23)c1F [PLX4720] (first compound 2 µM, partner dose 0.08 µM)",98.1%
8,"O=C(Nc1cc(C(F)(F)F)cc(C(F)(F)F)c1)c1cc(Cl)ccc1O + COc1ccc(C2=N[C@@H](c3ccc(Cl)cc3)[C@@H](c3ccc(Cl)cc3)N2C(=O)N2CCNC(=O)C2)c(OC(C)C)c1 [Nutlin-3] (first compound 0.016 µM, partner dose 0.1 µM)",121%
9,"O=C(O)[C@@H]1[O][Sb](=[O])([O][Sb]2(=[O])[O][C@H]([C@H](O)CO)[C@H](O)[C@H](C(=O)O)[O]2)[O][C@H]([C@H](O)CO)[C@@H]1O (stereo partly drawn) [stibogluconate] + CCN(CC)CCCCNc1ncc2cc(-c3cc(OC)cc(OC)c3)c(NC(=O)NC(C)(C)C)nc2n1 [PD173074] (first compound 2 µM, partner dose 0.1 µM)",98.7%
10,"Cc1cc(N2CCOCC2)cc2[nH]c(-c3c(NC[C@@H](O)c4cccc(Cl)c4)cc[nH]c3=O)nc12 + CC(C)CCN1c2nc(Nc3cc(F)c(O)c(F)c3)ncc2N(C)C(=O)C1C [BID1870] (first compound 0.2 µM, partner dose 0.2 µM)",76%
11,"O=C(Nc1cc(C(F)(F)F)cc(C(F)(F)F)c1)c1cc(Cl)ccc1O + CC(C)(C)c1cnc(CSc2cnc(NC(=O)C3CCNCC3)s2)o1 [SNS-032] (first compound 0.016 µM, partner dose 0.01 µM)",89.5%
12,"O=C(O)[C@@H]1[O][Sb](=[O])([O][Sb]2(=[O])[O][C@H]([C@H](O)CO)[C@H](O)[C@H](C(=O)O)[O]2)[O][C@H]([C@H](O)CO)[C@@H]1O (stereo partly drawn) [stibogluconate] + Cn1c(Nc2ccc(C(F)(F)F)cc2)nc2cc(Oc3ccnc(-c4ncc(C(F)(F)F)[nH]4)c3)ccc21 [CHIR265] (first compound 2 µM, partner dose 0.08 µM)",78.2%
13,"O=C(Nc1cc(C(F)(F)F)cc(C(F)(F)F)c1)c1cc(Cl)ccc1O + COc1cc2ncnc(Nc3ccc(Oc4ccccc4)cc3)c2cc1OC [SrcI1] (first compound 0.016 µM, partner dose 2 µM)",86.9%
